Results on 55 compounds are retold here after ChEMBL document CHEMBL4888484, “Replenishing the malaria drug discovery pipeline: Screening and hit evaluation of the MMV Hit Generation Library 1 (HGL1) against asexual blood stage Plasmodium falciparum ,using a nano luciferase reporter read-out” (2022).

Among all 150,000 compounds or so, about 540 (0.36%) showed an effect of 50% or more. Some of the results follow.

The subject of the assay is Plasmodium falciparum. The assay is described as follows: Primary screen in NF54 nanoGlo assay, in single point, at 2uM, 72h; a lower Z score goes with more inhibition. The class given is functional, Erythrocyte. Particulars: timepoint 72 hour.
Take `O=C(Cc1ccc(Br)cc1)N1CC(CN2C(=O)CCC2=O)C1`: the “% Inhibition” value was -15% and the Z score was found to be 1.98.

As to `O=C(NC1CCC(C(F)F)CC1)c1cccnn1` (stereo not given), the “% Inhibition” value is listed as 0% and the Z score is -0.01.

As to `Cc1c(S(=O)(=O)N[C@H]2COC[C@@H]2N2CCCC2)cnn1C`, the “% Inhibition” value is on record as -9% and the Z score worked out at 1.42.

Consider `CC(NC(=O)[C@H]1C[C@@H]1c1ccncc1)C1(S(C)(=O)=O)CC1` (stereo not given in full), for which the “% Inhibition” value is listed as -5% and the Z score came to 0.73.

On to `O=C1N[C@H]2CCC[C@@H]1CN(C(=O)CCCc1cn[nH]c1)C2`, for which the “% Inhibition” value is listed as -6% and the Z score is 0.62.

In the case of `Cn1c(-c2ccccn2)nc2ccc(F)cc21`, the “% Inhibition” value is -1% and the Z score came out at 0.14.

Consider `Cc1cc(NC(=O)N(C2CC2)[C@@H](C)C(C)C)ccn1`, for which the “% Inhibition” value is given as -8% and the Z score worked out at 1.18.

In the case of `COCC1(CC(=O)N2CC(c3cnc4ccccc4n3)C2)CC1`, the “% Inhibition” value was -8% and the Z score came out at 1.45.

Turning to `Cc1nccn1-c1cc(CNC(=O)[C@H](C)n2cncn2)ccn1`, the “% Inhibition” value is listed as -4% and the Z score came to 0.46.

Consider `O=C(C1Cc2ccccc21)N1CCC(c2nnc[nH]2)C1` (stereo not given), for which the “% Inhibition” value is -6% and the Z score was 0.81.

`CC1CC(C)CN(CCCN2C(=O)c3ccc(-c4ccco4)n3CC2(C)C(=O)NC2CCCCCC2)C1` (stereo not given): the “% Inhibition” value is -12% and the Z score turned out to be 1.49.

In the case of `CN(C)c1noc(-c2cccc3c2OCC3(C)C)n1`, the “% Inhibition” value is -1% and the Z score is 0.19.

`c1cnn(Cc2nc(C3CCOCC3)nn2CCc2cnc[nH]2)c1`: the “% Inhibition” value is on record as -14% and the Z score is given as 2.61.

Take `CCCc1nccn1Cc1nc(-c2ccc(C)s2)oc1C`: the “% Inhibition” value is given as -5% and the Z score is 0.76.

Turning to `CC(C)=CCN1C(=O)[C@@H]2CC[C@H]1CN(c1nnc(C(C)C)s1)C2`, the “% Inhibition” value was -12% and the Z score is 1.5.

As to `CC1CCCC(OCC(=O)N2CC(C)C(N(C)C)C2)C1` (stereo not given), the “% Inhibition” value was -10% and the Z score was found to be 1.34.

As to `Cc1cc(C(=O)N[C@@H](Cn2nccn2)c2ccccc2)n(C)n1`, the “% Inhibition” value is -8% and the Z score is listed as 1.27.

Take `Cc1ccc(NC(=O)CCS(=O)(=O)c2ccc3c(c2)CC(=O)N3C)cc1N(C)C`: the “% Inhibition” value was -1% and the Z score is reported as 0.09.

`N#Cc1cc(CN2CCN3CCCC[C@H]3C2)c(F)cc1F`: the “% Inhibition” value is -8% and the Z score is given as 1.31.

As for `CC1CCN(c2nc3c(c(Oc4ccccc4)n2)CN(C(=O)c2ccco2)CC3)CC1`, the “% Inhibition” value is on record as -4% and the Z score is 0.56.

Turning to `O=C(NCCc1cscn1)Nc1cc(F)cc(Br)c1`, the “% Inhibition” value is -6% and the Z score is 1.08.

Regarding `CCc1sc(NC(=O)c2cc3c([nH]c2=O)CCCC3=O)nc1-c1ccc2c(c1)CCCC2`, the “% Inhibition” value is reported as -1% and the Z score was 0.11.

Turning to `Cc1cnn(C(=O)Cn2nc(C(F)F)cc2C)c1`, the “% Inhibition” value is -3% and the Z score worked out at 0.52.

Consider `COc1ccc(C2(NCc3cc(O)cc(Cl)c3)CCOCC2)cc1`, for which the “% Inhibition” value is 27% and the Z score is reported as -0.14.

Turning to `O=C(Nc1ccc(N2CCN(c3ccccc3)C2=O)nc1)C1CCCCC1`, the “% Inhibition” value is -19% and the Z score worked out at 2.02.

On to `O=C(Cc1cccc2ccccc12)NOCC(=O)NC1CCCC1`, for which the “% Inhibition” value is reported as -8% and the Z score is given as 0.68.

As to `CC(C)C(=O)N[C@@H](CC(=O)O)c1cccc(Br)c1`, the “% Inhibition” value is -7% and the Z score is on record as 0.95.

With `C=CCC(CC=C)C(=O)NS(=O)(=O)c1ccc(F)c2ncccc12`, the “% Inhibition” value is -5% and the Z score is listed as 0.9.

For the compound `Cn1nncc1S(=O)(=O)N(CC1CC1)CC1CC1`, the “% Inhibition” value is -22% and the Z score was 2.61.

With `COC(=O)c1cccc(S(=O)(=O)NCCc2nc(C)no2)c1C`, the “% Inhibition” value is listed as -14% and the Z score amounted to 1.28.

In the case of `CO[C@H]1Cc2ccccc2N(Cc2ccccn2)C1`, the “% Inhibition” value amounted to 7% and the Z score is reported as -1.06.

As for `Cc1nc(N)c(C#N)c(-c2ccc3c(c2)OCO3)c1C`, the “% Inhibition” value is on record as -1% and the Z score stood at 0.12.

Regarding `CCC1(NC(=O)Cc2cccc3ccccc23)CCOCC1`, the “% Inhibition” value turned out to be 33% and the Z score is -3.72.

As to `CN(C)c1ccnc(NC(=O)N[C@@H]2CCCc3cccnc32)n1`, the “% Inhibition” value is given as -2% and the Z score is 0.37.

Regarding `CCn1cc(Br)c(C(=O)N(C)c2cccc(C)n2)n1`, the “% Inhibition” value is -2% and the Z score is 0.26.

For `O=C(NCc1cccnc1)N1CCC(C(F)(F)F)(C(F)(F)F)C1`, the “% Inhibition” value is -12% and the Z score is 1.7.

`O=C1CC[C@@]2(CCCN(c3ncc(F)cn3)C2)CN1Cc1cccnc1`: the “% Inhibition” value turned out to be 10% and the Z score is -0.94.

For `CN1CCC(NC(=O)Nc2cccc(N(C)C)n2)CC1`, the “% Inhibition” value is listed as -14% and the Z score stood at 2.35.

As to `O=C(c1ccsc1)N1CCN(c2c(F)c(F)c(F)c(F)c2F)CC1`, the “% Inhibition” value is -9% and the Z score was 1.78.

With `Cc1noc(NCc2cccc(-c3cccnc3)c2)n1`, the “% Inhibition” value stood at 10% and the Z score is -1.16.

As to `Cc1nn(C)c2sc(C(=O)N3c4ccccc4C[C@@H]3C)cc12`, the “% Inhibition” value is -4% and the Z score was found to be 0.55.

Consider `CCn1c(=O)n(CC(=O)N2CCN(C3CCCCC3)CC2)c(=O)c2cnc(-c3ccccc3)nc21`, for which the “% Inhibition” value is -2% and the Z score is given as 0.38.

Consider `CCOC(=O)N1CCN(c2oc(C(C)C)nc2C#N)CC1`, for which the “% Inhibition” value is recorded as 0% and the Z score is reported as -0.03.

Turning to `C[C@@H](C(N)=O)n1cc(-c2cccc(C(=O)NCCCc3ccco3)c2)cn1`, the “% Inhibition” value is listed as -1% and the Z score is listed as 0.2.

`CCOc1ncccc1CNC(=O)CNC(C)=O`: the “% Inhibition” value turned out to be 36% and the Z score is given as -4.05.

As for `COc1ccccc1-c1noc(-c2cnn(C(C)C)c2C)n1`, the “% Inhibition” value is -6% and the Z score was 0.58.

As for `CC(C)(C)NC(=O)Cn1ccn2nc(-c3ccc(F)cc3)c(CO)c2c1=O`, the “% Inhibition” value is recorded as -5% and the Z score stood at 0.53.

Consider `Cc1ccc(C2=NN(C(=O)CN3CCN(Cc4ccccc4)CC3)[C@H](c3ccc(C)cc3)C2)cc1`, for which the “% Inhibition” value was -8% and the Z score was found to be 1.44.

For `C#CCOc1ccc(N(C)CC(=O)NCc2ccco2)cc1`, the “% Inhibition” value is reported as -2% and the Z score came to 0.18.

In the case of `CC(C)c1noc(CN(C)C[C@@H]2CCCN3CCCC[C@H]23)n1`, the “% Inhibition” value was -1% and the Z score is listed as 0.11.

Consider `O=C1Nc2ccc(Br)cc2C1=O`, for which the “% Inhibition” value amounted to 36% and the Z score is on record as -1.16.

With `CC(C)CCNC(=O)CCC[C@@H]1[C@H]2CCCN3CCC[C@@H](CN1C(=O)c1cccnc1)[C@@H]23`, the “% Inhibition” value came to 10% and the Z score was -2.05.

`COc1ccc(CNC(=O)C(=O)NCCO)cc1`: the “% Inhibition” value is reported as -6% and the Z score is given as 0.7.

Take `CC(C)(C)CC(=O)NC[C@H](O)c1ccc(Cl)s1`: the “% Inhibition” value was -6% and the Z score was found to be 0.72.

On to `CC(C)n1[nH]c(=O)c2c1NC(=O)C[C@@H]2c1cccc2nccnc12`, for which the “% Inhibition” value is on record as 37% and the Z score is -4.15.

Broadly, the % Inhibition is the change of the read-out against control, counted positive when it falls.
